Source: PubChem BioAssay AID1768 (National Center for Advancing Translational Sciences (NCATS), 2009)
The whole screen tested about 270,000 compounds, of which about 620 (0.23%) were called active. This list was built around the results that the source calls inconclusive (neither active nor inactive); the mix of calls is not that of the screen. The call rests on the fitted dose curve; in most records, active means well fitted inhibition curve with a large enough effect in the polarisation, with a control signal flat (not every such curve was filed as active); inconclusive means small, poorly fitted or top-dose-only effect, or effect the other way, or a change in a side signal; inactive means no such curve, though single readings can be large or run the other way; the % refers to the polarisation. A potency beside an inconclusive call is a rough fit, not a confirmed value. A note “side channel” means that the fit belongs to a control or component signal, not to the main read-out.

biological target: Menin (Homo sapiens) (UniProt O00255); assay: qHTS Assay for Inhibitors Targeting the Menin-MLL Interaction in MLL Related Leukemias: Competition With Texas Red Labeled MLL-derived Mutant Peptide; conditions: fluorescence polarization; series mostly up to 61.6 µM
Sequence of UniProt O00255 (O00255 whole entry, looked up): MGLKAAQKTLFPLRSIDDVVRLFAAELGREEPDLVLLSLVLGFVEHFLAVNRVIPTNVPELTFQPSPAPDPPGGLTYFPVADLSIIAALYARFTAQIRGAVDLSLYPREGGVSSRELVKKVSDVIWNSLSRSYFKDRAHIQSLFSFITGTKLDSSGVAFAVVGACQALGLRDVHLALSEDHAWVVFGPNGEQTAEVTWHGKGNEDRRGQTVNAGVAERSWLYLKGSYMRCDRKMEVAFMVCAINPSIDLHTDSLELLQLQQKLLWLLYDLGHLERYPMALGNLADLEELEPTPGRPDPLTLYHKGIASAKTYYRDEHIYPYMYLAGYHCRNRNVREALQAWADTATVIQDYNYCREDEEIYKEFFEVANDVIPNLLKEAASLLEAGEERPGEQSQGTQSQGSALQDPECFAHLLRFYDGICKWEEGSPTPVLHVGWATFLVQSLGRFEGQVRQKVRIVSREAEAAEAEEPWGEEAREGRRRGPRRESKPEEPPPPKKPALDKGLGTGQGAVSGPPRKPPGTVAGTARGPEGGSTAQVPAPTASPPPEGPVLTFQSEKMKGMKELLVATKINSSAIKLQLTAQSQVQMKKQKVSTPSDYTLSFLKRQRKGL
Potency means the concentration at half of the fitted maximal effect; tags describe the fitted curve by direction and shape or compound fluorescence and quenching.

Structure (SMILES)	Potency
COc1ccc(/C(O)=C2/C(=O)C(=O)N(c3ccccn3)C2c2ccc(F)cc2)cc1 (configuration not stated)	inconclusive: 15.8 µM [quencher, side channel, single point]
Cn1c(-c2sc3cc(C(F)(F)F)cnc3c2-c2cccs2)n[nH]c1=S	inconclusive: 8.91 µM [quencher, side channel, partial curve]
CCCCCCCCCCCCCCCC(=O)NCC(=O)O	inactive
CC(C)(C)C(=O)/C=c1\[nH]c(=O)/c(=C\c2ccc(F)cc2)s1	inconclusive: 31.6 µM [quencher, side channel, partial curve]
CC(=O)O[C@@]12CO[C@@H]1C[C@H](O)[C@@]1(C)C(=O)[C@H](O)C3=C(C)[C@@H](OC(=O)C(O)[C@@H](NC(=O)OC(C)(C)C)c4ccccc4)C[C@@](O)([C@@H](OC(=O)c4ccccc4)[C@H]21)C3(C)C (some centres not stated)	inactive
COC(=O)CNC(=O)COC(=O)c1cc(Cl)cc(Cl)c1N	inactive
Cc1ccc(C(C)C)c(OCCN2CCc3ccccc3C2)c1	inconclusive: 39.8 µM [inhibitor, single point]
O=S1(=O)C=C(SCc2ccc(Cl)c(Cl)c2)Nc2ccccc21	inconclusive: 12.6 µM [quencher, side channel, partial curve]
O=C(N/N=C/c1c(-c2ccccc2)[nH]c2ccccc12)c1cccnc1	inconclusive: 22.4 µM [quencher, side channel, single point]
CC(=O)Oc1ccccc1-c1nc(/C=C/c2ccccc2)no1	inconclusive: 25.1 µM [quencher, side channel, single point]
COc1ccccc1NC(=O)C1=C(C)N(c2ccccc2)C(=S)NC1c1cccc(C(F)(F)F)c1 (configuration not stated)	inconclusive: 15.8 µM [fluorescent, side channel, partial curve]
Cc1ccc(NC(=O)CN2CCN(c3ccccn3)CC2)c(Cl)c1	inconclusive: 22.4 µM [fluorescent, side channel, single point]
CC(C)NC(=O)c1ccc2c(=O)n(C3CCCC3)c(=S)[nH]c2c1	inconclusive: 22.4 µM [inhibitor, partial curve]
O=C(NCCN1CCCCC1)c1ccc(=O)oc1	inconclusive: 31.6 µM [inhibitor, single point]
COc1c(O)c(O)c2cc(OC)c3c(OC)cc(=O)c4c5c(=O)c(OC)c(C(C)=O)c6c5c(c1CC=6C)c2c34	inconclusive: 25.1 µM [inhibitor, single point]
CCCCCCn1c(=O)[nH]c2nc3cc(N)c(C)cc3nc2c1=O	inactive
O=C(Nc1nnc(SCC(=O)N2CCCc3ccccc32)s1)c1cccc2ccccc12	inconclusive: 39.8 µM [inhibitor, single point]
NS(=O)(=O)c1ccc(CCNC(=O)c2cc3ccccc3s2)cc1	inconclusive: 39.8 µM [inhibitor, single point]
CC12CC(NC(=O)N1c1cccc(C(=O)N3CCN(c4ccccc4F)CC3)c1)c1ccccc1O2 (configuration not stated)	inconclusive: 6.31 µM [fluorescent, side channel, partial curve]

Structure (SMILES)	Potency
CC1=NCC(C)c2c1[nH]c1ccccc21 (configuration not stated)	inconclusive: 11.2 µM [inhibitor, partial curve]
Cc1ccc([N+](=O)[O-])cc1S(=O)(=O)NCCc1c(C)[nH]c2c(C)cccc12	inconclusive: 12.6 µM [quencher, side channel, partial curve]
CCSc1nc2ccccc2c(=O)n1C1CCOC(C)(C)C1 (configuration not stated)	inconclusive: 14.1 µM [fluorescent, side channel, partial curve]
C=CCSc1nc(N)c(C#N)c(-c2ccccc2)c1C#N	inconclusive: 39.8 µM [fluorescent, single point]
Cc1ccc(S(=O)(=O)Oc2ccc(/C=C(/NC(=O)c3ccccc3)C(=O)NCCC(=O)O)cc2)cc1	inconclusive: 17.8 µM [quencher, side channel, partial curve]
COc1ccc(NS(=O)(=O)c2cc(NC(=O)C3CCCO3)ccc2N2CCCCC2)cc1 (configuration not stated)	inactive
CCc1nnc(NC(=O)c2ccc(S(=O)(=O)N(C)Cc3ccccc3)cc2)o1	inconclusive: 12.6 µM [quencher, side channel, partial curve]
CCc1ccc2[nH]c3nc(N/N=C/c4ccc(O)cc4O)nnc3c2c1	inconclusive: 10 µM [quencher, side channel, partial curve]
O=C(CSc1nnc2c(n1)[nH]c1ccccc12)NC1CCCCC1	inconclusive: 39.8 µM [fluorescent, side channel, single point]
COCCSc1ccccc1C(=O)Nc1cc(C)cc(C)c1	inactive
Clc1ccccc1-c1nc(NC2CCNCC2)c2ccccc2n1	inactive
CCCCCOC(=O)CSc1nc2c(c(=O)[nH]c(=O)n2C)n1CCc1ccccc1	inconclusive: 2.24 µM [inhibitor, full curve]
CCc1nnc(NS(=O)(=O)c2ccc(NC(=O)COc3ccc4ccccc4c3)cc2)s1	inconclusive: 7.94 µM [quencher, side channel, partial curve]
CCOC(=O)C1=C(C)NC2=C(C(=O)CCC2)C1c1cccnc1 (configuration not stated)	inactive
COc1cccc(Nc2c(F)c(F)c(F)c(F)c2C(=O)O)c1	inconclusive: 39.8 µM [quencher, side channel, single point]
CC(=O)c1cnc2c(-c3ccccc3)c(C(F)(F)F)nn2c1C	inconclusive: 12.6 µM [quencher, side channel, partial curve]
C[C@H](N)C(=O)N[C@@H](Cc1ccc(F)cc1)C(=O)N[C@@H](CCCN=C(N)N)C(=O)N[C@@H](CC1CCCCC1)C(=O)N[C@@H](CCCCN=C(N)N)C(=O)N[C@@H](Cc1ccc(O)cc1)C(N)=O	inconclusive: 28.2 µM [inhibitor, partial curve]
Cc1oc(-c2ccccc2)cc1C(=O)Nc1ccc2ccccc2c1	inconclusive: 2.82 µM [quencher, side channel, full curve, poor fit]
O=C(CCN1C(=O)C2C3CCC(C3)C2C1=O)Nc1ccc(Cl)cc1Cl (configuration not stated)	inconclusive: 0.316 µM [quencher, side channel, full curve, poor fit]

Structure (SMILES)	Potency
Cc1cc(C(=O)CSc2nc3ccc(Cl)cc3[nH]2)c(C)n1C	inactive
CSc1nsc(N/N=C/c2ccccc2)c1C#N	inconclusive: 10 µM [quencher, side channel, partial curve]
COc1ccc(C(=O)Nc2cccc(C(C)=O)c2)c(OC)c1OC	inconclusive: 31.6 µM [fluorescent, side channel, single point]
CC(=O)c1sc(NC(=O)CCN2C(=O)c3ccccc3C2=O)nc1C	inconclusive: 5.01 µM [quencher, side channel, full curve, poor fit]
CCCCn1c2ccc(F)cc2c2nnc(SCCN3CCCCC3)nc21	inconclusive: 7.94 µM [inhibitor, full curve, poor fit]
CCNc1ncc2nc(C)c(=O)n(Cc3cccs3)c2n1	inactive
CCC(=O)N1CCc2cc(S(=O)(=O)NC(Cc3ccccc3)C(=O)NC3CCCCC3C)ccc21 (configuration not stated)	inconclusive: 11.2 µM [fluorescent, side channel, partial curve]
Cc1ccc(C(=O)N(Cc2ccc3c(c2)OCO3)Cc2nc3ccccc3c(=O)[nH]2)cc1	inconclusive: 8.91 µM [fluorescent, side channel, full curve, poor fit]
Cc1c(Cc2ccccc2)c(=O)oc2cc(OCC(N)=O)ccc12	inconclusive: 15.8 µM [fluorescent, side channel, partial curve]
CC(Sc1ccsc1[N+](=O)[O-])C(=O)NCc1ccco1 (configuration not stated)	inconclusive: 20 µM [quencher, side channel, partial curve]
NS(=O)(=O)c1ccc(NC(=S)NC(=O)c2ccc(Br)o2)cc1	inconclusive: 39.8 µM [inhibitor, single point]
CS(=O)(=O)CCNCc1ccc(-c2ccc3ncnc(Nc4ccc(OCc5cccc(F)c5)c(Cl)c4)c3c2)o1	inconclusive: 15.8 µM [inhibitor, partial curve]
COc1cc(OC)c(NC(=O)c2ccc(Br)o2)cc1Cl	inconclusive: 11.2 µM [quencher, side channel, partial curve]
Cc1cccc2sc(NC(=O)CSCc3ccccc3)nc12	inconclusive: 22.4 µM [quencher, side channel, single point]
COc1cccc(C(C(=O)NCc2ccco2)N(C(=O)Cn2nnc3ccccc32)C2CC2)c1OC (configuration not stated)	inconclusive: 39.8 µM [fluorescent, side channel, single point]
CNC(=O)c1ccsc1NC(=O)c1ccc(S(=O)(=O)N2CCc3ccccc32)cc1	inconclusive: 11.2 µM [quencher, side channel, partial curve]
CCOc1ccc2nc(N3CCC(C(=O)N4CCN(c5ccccn5)CC4)CC3)sc2c1	inconclusive: 8.91 µM [inhibitor, partial curve]
CCOc1cccc(C(=O)Nc2ccccc2OC(F)F)c1	inconclusive: 39.8 µM [inhibitor, single point]
CC(C)CCNC(=O)NC(=O)CSc1nnc(-c2ccccc2F)n1N	inconclusive: 39.8 µM [inhibitor, single point]
